Experimental data published in PubChem BioAssay AID493078 (National Center for Advancing Translational Sciences (NCATS), 2011).
Inconclusive means that the source gave no clear call. Such entries were picked first, then a sample of the others. No potency is given beside an inconclusive call; the fits are too rough. The source made the active and inactive calls. The call rests on the fitted dose curve; in most records, active means well fitted activation curve with a large enough effect; inconclusive means small, poorly fitted or top-dose-only effect; inactive means flat fitted curve, though single readings scatter.

Target: Thyrotropin-releasing hormone receptor (Homo sapiens) (UniProt P34981)
Test: qHTS for Small Molecule Agonists and Allosteric Enhancers of Human TRH Receptor: Confirmation Screen for Agonists; further: nearly all actives have a fitted effect of over 75% in size; on activation: 0% is about no effect
Settings: TRHR-expressing cells, agonist activation read-out; series mostly up to 46.1 µM; activation: at the top concentration
In short: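 Kinetic intracellular calcium measurement, 1 cycle/sec, Ex 480/Em 530, in TRHR cells with fluo-8 dye. Agonist activity taken from the post-compound phase, preceding the 10 nM TRH (EC20) potentiator phase.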
Potency means the concentration at half of the fitted maximal effect; tags describe the fitted curve by direction and shape.

Sequence of UniProt P34981 (P34981 whole entry, looked up): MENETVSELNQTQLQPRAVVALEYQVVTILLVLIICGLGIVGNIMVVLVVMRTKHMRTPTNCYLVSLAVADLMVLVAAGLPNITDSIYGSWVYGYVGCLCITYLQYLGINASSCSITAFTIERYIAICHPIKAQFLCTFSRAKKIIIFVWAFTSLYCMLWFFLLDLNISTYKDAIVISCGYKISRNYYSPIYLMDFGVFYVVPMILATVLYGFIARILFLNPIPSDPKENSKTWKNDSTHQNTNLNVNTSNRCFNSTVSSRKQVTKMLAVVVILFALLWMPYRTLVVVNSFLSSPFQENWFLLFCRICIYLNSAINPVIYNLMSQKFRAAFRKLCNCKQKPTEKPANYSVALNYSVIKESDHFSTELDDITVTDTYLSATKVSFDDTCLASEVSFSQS

Structure (SMILES)	Potency	activation
CC1=CC(=C(C#N)c2nc3ccccc3s2)C=C(C)N1CC1CCCO1 (stereo not given)	active: 18.4 µM	–
Cc1cc(S(=O)(=O)c2cc3ccc(O)c(C)c3oc2=O)ccc1F	active: 20.6 µM	–
N#Cc1ccc(Oc2cc(C(F)(F)F)nc(-c3ccccn3)n2)cc1	–	inactive: 0.518%
CC(=O)Oc1ccc2c(c1)O/C(=C\c1ccncc1)C2=O	inconclusive [activator, partial curve]	–
COc1ccc2oc(=O)c(C(=O)NC3CCCCCC3)cc2c1	–	inactive: -0.778%
COc1cc(/C=C2\SC(=S)N(N(C)c3ccccc3)C2=O)ccc1O	inconclusive [activator, partial curve, poor fit]	–
[2H]C([2H])(CCOS(N)(=O)=O)c1ccccc1	inconclusive [activator, partial curve, poor fit]	–
O=C1c2ccccc2-c2onc3ccc(N4CCCC4)c1c23	inconclusive [activator, partial curve]	–
CCN1CCN(Cc2c(O)ccc3c2O/C(=C\c2ccc(C)cc2)C3=O)CC1	inconclusive [activator, partial curve]	–
COc1ccccc1OCC(=O)OCC(=O)Nc1sccc1C(N)=O	inconclusive [activator, partial curve, poor fit]	–
O=C(N/N=C/c1c(O)n(-c2ccc(Cl)cn2)c(=O)c2ccccc12)c1ccncc1	active: 20.6 µM	–
c1ccc(Oc2ccc(-c3ccnc4ncnn34)cc2)cc1	–	inactive: 0.415%
Oc1ccc2ccccc2c1/C=N/Nc1nnc(-c2ncc[nH]2)c2ccccc12	active: 23.1 µM	–
O=[N+]([O-])c1ccc(/C=C/C2=NN(c3ccccc3)C(c3ccco3)C2)o1 (stereo not given)	inconclusive [activator, full curve, poor fit]	–
O=C(CCC1N=C2c3ccccc3N=C(SCc3cccc(Cl)c3)N2C1=O)NCc1ccco1 (stereo not given)	inconclusive [activator, partial curve, poor fit]	–
Nc1nnc(-c2cc3c(ccc4ccccc43)oc2=O)s1	inconclusive [activator, partial curve]	–
COc1cc(CN2CCNC(=O)C2CC(=O)NC2CCCC2)cc(OC)c1 (stereo not given)	–	inactive: 0.384%
COc1ccc2c(c1)cc(C(=O)N/N=C/c1c(O)c(C(=O)O)cc3ccccc13)n2C	active: 18.4 µM	–
O=S(=O)(NC1CCCCC1N1CCN(c2ccccc2F)CC1)c1ccc(Cl)cc1 (stereo not given)	inconclusive [activator, partial curve, poor fit]	–
Cc1c(-n2cc(C(=O)c3ccccc3O)cc(C#N)c2=O)c(=O)n(-c2ccccc2)n1C	inconclusive [activator, partial curve, poor fit]	–

Structure (SMILES)	Potency	activation
COc1cc(CNC(C)C23CC4CC(CC(C4)C2)C3)ccc1OCC(=O)NC(C)(C)C (stereo not given)	inconclusive [activator, single point]	–
COc1ccccc1N/C=C/c1onc(C)c1[N+](=O)[O-]	inconclusive [activator, partial curve]	–
CC(=O)Nc1ccccc1-c1nn[nH]n1	–	inactive: -0.658%
COc1ccc(NC(=O)CN(C)C(=O)CNC(=O)c2sc3ccccc3c2Cl)cc1	–	inactive: 1.15%
CC(=O)Oc1c(Sc2ccccc2[N+](=O)[O-])c(C)nn1C(C)(C)C	inconclusive [activator, partial curve, poor fit]	–
NS(=O)(=O)c1cccc(NC(=O)CSc2nc3ccccc3n2-c2ccccc2)c1	–	inactive: 1.92%
CC(=O)c1cc(NC(=O)c2ccc(C)cc2)c(=O)oc1/C=C/N(C)C	active: 20.6 µM	–
O=C(N/N=C/c1ccc(OCc2cnc(Cl)s2)cc1)c1ccncc1	–	inactive: 2.18%
O=C(NN1C(=O)/C(=C/c2ccc(O)c(O)c2)SC1=S)c1ccccc1	inconclusive [activator, partial curve, poor fit]	–
CN(C[C@H](Cc1ccccc1)N(CCN(CCc1ccccc1)N=O)N=O)N=O	–	inactive: 3.11%
Cc1c(O)ccc2cc(S(=O)(=O)c3ccccc3)c(=O)oc12	active: 23.1 µM	–
CCN(CC)c1ccc(/C=c2\sc3nc4ccccc4n3c2=O)c(O)c1	active: 20.6 µM	–
COCCNC(=S)N/N=C/c1ccc(-c2ccc([N+](=O)[O-])cc2)o1	active: 10.3 µM	–
Cc1nnc(NC(=O)c2sc3nc(-c4cccs4)cc(C(F)(F)F)c3c2N)s1	inconclusive [activator, full curve]	–
CCc1cccc2sc(NC(=O)C3CC3)nc12	inconclusive [activator, partial curve, poor fit]	–
NS(=O)(=O)c1ccc(NC(=O)COC(=O)c2cn(-c3ccccc3)nc2-c2ccc(F)cc2)cc1	inconclusive [activator, partial curve, poor fit]	–
COc1ccc(O)c(C(=O)c2coc(=N)c(C(=O)Nc3ccc(SC(F)F)cc3)c2)c1	inconclusive [activator, partial curve, poor fit]	–
N#C/C(=C\c1ccc(N2CCOCC2)o1)C(=O)NCCc1ccccc1	active: 18.4 µM	–
CCOc1ccccc1N(CC(=O)N1CCOCC1)S(=O)(=O)c1ccc(SC)cc1	active: 2.06 µM	–
CCN(CC)c1ccc(/C=N/NC(=O)c2cccc(S(=O)(=O)N3CCOCC3)c2)c(O)c1	inconclusive [activator, partial curve]	–
